In all, about 33,000 sequences were measured (“E-score (-0.5 to 0.5)”: median about -0.016, highest 2% from about 0.31 on). Some of the results follow.
Each sequence was assayed against Cst6 (UniProt P40535) (assay: PBM E-score (8-mer binding enrichment) (E-score (-0.5 to 0.5)); higher = stronger / more preferred TF binding; most listed sequences are background and not binding sites). Settings: protein concentration: 200 nM; construct: GST-DNA-binding domain.
Experimental: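 Universal 'all 10-mer' protein binding microarrays (Agilent AMADID 015681) probed with GST-tagged S. cerevisiae TFs (full-length or DBD) made by in vitro transcription/translation (PURExpress), about 100-200 nM. Bound TF was detected with fluorescent anti-GST. Each ungapped 8-mer (which stands for itself and its reverse complement) is scored by the PBM enrichment score (E-score), a modified Wilcoxon-Mann-Whitney statistic from -0.5 to +0.5, computed with the Universal PBM Analysis Suite. Scale: above 0.35 generally sequence-specific binding.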
In the case of GGCTACAC, the “PBM E-score” value is reported as -0.0907.
With AATTTTCG the “PBM E-score” value was 0.0598.
For AGGACAAG, the “PBM E-score” value was -0.193.
CCTTGGTA was tested, and the “PBM E-score” value was 0.0148.
In the case of AGGTAGGC, the “PBM E-score” value is reported as -0.276.
For AGCACTAA, the “PBM E-score” value was -0.0481.
With CACGTCGA the “PBM E-score” value was -0.0449.
In the case of CATTGAGG, the “PBM E-score” value is reported as -0.0774.
In the case of CGGGATTC, the “PBM E-score” value is reported as -0.0734.
In the case of AACGCTAA, the “PBM E-score” value is reported as -0.102.
CTTTGGTC was tested, and the “PBM E-score” value was 0.0204.
In the case of AGTTCTCC, the “PBM E-score” value is reported as -0.256.
CTAAATCC was tested, and the “PBM E-score” value was -0.0264.
In the case of GCTTGTAA, the “PBM E-score” value is reported as 0.0486.
In the case of ATCCATGG, the “PBM E-score” value is reported as -0.138.
For CGCGATAA, the “PBM E-score” value was 0.0799.
With CAGATGGA the “PBM E-score” value was 0.0301.
In the case of ACTACACA, the “PBM E-score” value is reported as 0.17.
For AACAGGTC, the “PBM E-score” value was -0.136.
For ATGAAAAC, the “PBM E-score” value was 0.262.
In the case of TGACAGAA, the “PBM E-score” value is reported as 0.27.
In the case of CCGATAAA, the “PBM E-score” value is reported as 0.0173.
With CACAGACA the “PBM E-score” value was 0.0402.
In the case of CTCCTAAG, the “PBM E-score” value is reported as -0.125.
For GGGTGATA, the “PBM E-score” value was -0.0342.
In the case of AGGGGCCG, the “PBM E-score” value is reported as -0.237.
ATGCATTG was tested, and the “PBM E-score” value was 0.0704.
In the case of AAACTGGG, the “PBM E-score” value is reported as -0.199.
With CTATGCCC the “PBM E-score” value was -0.0845.
With ATTACGCA the “PBM E-score” value was 0.398.
CGAGGTCC was tested, and the “PBM E-score” value was -0.296.
With AAACCTCT the “PBM E-score” value was -0.0254.
ATTCCATG was tested, and the “PBM E-score” value was -0.00135.
With GACCATCC the “PBM E-score” value was -0.121.
In the case of GATATACA, the “PBM E-score” value is reported as 0.0998.
With AGAGTCCG the “PBM E-score” value was -0.307.
In the case of ACCTTGTC, the “PBM E-score” value is reported as -0.171.
In the case of AGAGTTCC, the “PBM E-score” value is reported as -0.258.
With ACTCCGTG the “PBM E-score” value was 0.0481.
With CCGCCATA the “PBM E-score” value was -0.00276.
In the case of CATCTCCG, the “PBM E-score” value is reported as -0.00869.
CCCACTCC was tested, and the “PBM E-score” value was -0.334.
In the case of AAGCCACA, the “PBM E-score” value is reported as -0.0171.
With ATTCTTCC the “PBM E-score” value was -0.0364.
GCACACCA was tested, and the “PBM E-score” value was -0.0603.
TCGCGTCA was tested, and the “PBM E-score” value was 0.369.
For GTCCATTA, the “PBM E-score” value was 0.0942.
With CCCGGAGC the “PBM E-score” value was -0.113.
ATGTCTGC was tested, and the “PBM E-score” value was -0.0808.
With AACGACCC the “PBM E-score” value was -0.19.
In the case of GCACTATA, the “PBM E-score” value is reported as -0.0309.
For AAGCAATC, the “PBM E-score” value was -0.00786.
In the case of AAAGTAGC, the “PBM E-score” value is reported as -0.0556.
With ACTCTGTA the “PBM E-score” value was 0.00029.
With ATTACATG the “PBM E-score” value was 0.245.
For ATGACGGG, the “PBM E-score” value was 0.258.
With CATGGAAG the “PBM E-score” value was 0.0889.
In the case of AACCCCCT, the “PBM E-score” value is reported as -0.32.
For CGTTATCA, the “PBM E-score” value was 0.238.
CTTATGAA was tested, and the “PBM E-score” value was 0.052.
TACAGTAA was tested, and the “PBM E-score” value was 0.137.
In the case of GTTCGAAA, the “PBM E-score” value is reported as 0.193.
In the case of AAGTTTTA, the “PBM E-score” value is reported as 0.181.
With ATAGGTTC the “PBM E-score” value was -0.0321.
With CTCGTTTC the “PBM E-score” value was 0.0108.
With CGAGGCAC the “PBM E-score” value was -0.0663.
With CCGTAATA the “PBM E-score” value was 0.176.
For CGAGAGAA, the “PBM E-score” value was -0.0828.
With GGAATTAC the “PBM E-score” value was 0.215.
CGCTCTCA was tested, and the “PBM E-score” value was -0.0978.
With AATAGGAT the “PBM E-score” value was 0.234.
With TACGTTGA the “PBM E-score” value was 0.254.
With AGAATCCT the “PBM E-score” value was -0.295.
With TAGTGTCA the “PBM E-score” value was 0.17.
With AGCTTCAA the “PBM E-score” value was -0.0524.
With TCCCGGAA the “PBM E-score” value was -0.216.
In the case of AAGACAGC, the “PBM E-score” value is reported as -0.0854.
In the case of ATTTTAAC, the “PBM E-score” value is reported as 0.0103.
For ATTCACCC, the “PBM E-score” value was -0.0581.
For GAAATCGA, the “PBM E-score” value was -0.0554.
With CCCTTCGA the “PBM E-score” value was -0.255.
For GAGGTTGC, the “PBM E-score” value was -0.23.
For AGAACTCC, the “PBM E-score” value was -0.142.
With GTGGGGTA the “PBM E-score” value was 0.0304.
ACTCGTTG was tested, and the “PBM E-score” value was -0.0133.
For TGTTCGAA, the “PBM E-score” value was 0.0264.
For AACATGAA, the “PBM E-score” value was 0.0629.
AGTATATG was tested, and the “PBM E-score” value was 0.111.
In the case of CATTGACA, the “PBM E-score” value is reported as 0.0835.
In the case of CCCTCGTA, the “PBM E-score” value is reported as -0.18.
With CGCCCGGC the “PBM E-score” value was -0.202.
With AGGGCGTG the “PBM E-score” value was -0.115.
For GGAACCGA, the “PBM E-score” value was -0.0692.
With CCCCCTAC the “PBM E-score” value was -0.415.
With CCAATGAA the “PBM E-score” value was -0.187.
With CGTGTATC the “PBM E-score” value was -0.024.
In the case of ACCACTGA, the “PBM E-score” value is reported as 0.0276.
In the case of ATATAGTC, the “PBM E-score” value is reported as 0.196.
In the case of ATGAAATC, the “PBM E-score” value is reported as 0.314.
With GGAGTACC the “PBM E-score” value was -0.32.
ACACCCGA was tested, and the “PBM E-score” value was -0.0457.
GCTGAACC was tested, and the “PBM E-score” value was -0.176.
For AAGATTCC, the “PBM E-score” value was 0.141.
With GCAAACGA the “PBM E-score” value was 0.105.
In the case of ACGCGAGA, the “PBM E-score” value is reported as -0.111.
With CTATCTTC the “PBM E-score” value was 0.0856.
In the case of GAGCAAAC, the “PBM E-score” value is reported as 0.0617.
With GAAGCGGA the “PBM E-score” value was -0.109.
For AGGACTAT, the “PBM E-score” value was -0.176.
For CCCGGCGA, the “PBM E-score” value was -0.155.
CCCCTAAC was tested, and the “PBM E-score” value was -0.203.
In the case of CATCACAG, the “PBM E-score” value is reported as 0.253.
In the case of ATGACCAT, the “PBM E-score” value is reported as 0.124.
In the case of CACGAAGG, the “PBM E-score” value is reported as -0.0913.
In the case of CTGCATGA, the “PBM E-score” value is reported as -0.0401.
In the case of AACGACGT, the “PBM E-score” value is reported as 0.183.
CCAACGCG was tested, and the “PBM E-score” value was -0.168.
In the case of AACGCCAT, the “PBM E-score” value is reported as 0.118.
With ACCAACCA the “PBM E-score” value was -0.0567.
In the case of CAGGGACC, the “PBM E-score” value is reported as -0.315.
For CGTCGTTC, the “PBM E-score” value was 0.0836.
In the case of CATGCGAG, the “PBM E-score” value is reported as -0.0822.
For GCTGAGCC, the “PBM E-score” value was 0.0143.
For AAGAAAGG, the “PBM E-score” value was 0.0942.
In the case of AGCTTCAG, the “PBM E-score” value is reported as -0.182.
In the case of AGAAAATG, the “PBM E-score” value is reported as 0.0622.
With ACAGGGAT the “PBM E-score” value was -0.186.
In the case of ATCGAAGC, the “PBM E-score” value is reported as -0.0506.
In the case of CACACCGA, the “PBM E-score” value is reported as 0.0377.
In the case of GGTTGACA, the “PBM E-score” value is reported as 0.109.
ACATAACT was tested, and the “PBM E-score” value was 0.17.
For CAGGTAAA, the “PBM E-score” value was 0.193.
In the case of ACCGTATG, the “PBM E-score” value is reported as 0.123.
With ACCAAGAT the “PBM E-score” value was 0.071.
For AGTGAAGG, the “PBM E-score” value was -0.115.
In the case of CCACCAAA, the “PBM E-score” value is reported as 0.0187.
CGTTTACA was tested, and the “PBM E-score” value was 0.0632.
For CCATCTAG, the “PBM E-score” value was -0.261.
With GCTGCTAC the “PBM E-score” value was -0.261.
With GATACTGA the “PBM E-score” value was 0.101.
For CCCATTAC, the “PBM E-score” value was -0.0421.
For GGGCCGAC, the “PBM E-score” value was -0.198.
With ACTCGGCG the “PBM E-score” value was 0.00811.
CTTGCTAA was tested, and the “PBM E-score” value was -0.132.
In the case of CCGGGGCA, the “PBM E-score” value is reported as -0.192.
In the case of CCATTCAC, the “PBM E-score” value is reported as -0.106.
With AAAACCCT the “PBM E-score” value was -0.0741.
AGCCCCAT was tested, and the “PBM E-score” value was -0.241.
For CCATGGGA, the “PBM E-score” value was -0.232.
In the case of CATGAGAA, the “PBM E-score” value is reported as 0.194.
For CCTGGGTA, the “PBM E-score” value was -0.301.
For CTTCCGTC, the “PBM E-score” value was 0.0409.
In the case of AGAGCGGC, the “PBM E-score” value is reported as 0.128.
ATATGATC was tested, and the “PBM E-score” value was 0.234.
In the case of ATTGCCAA, the “PBM E-score” value is reported as -0.137.
With GTGAAGCA the “PBM E-score” value was -0.0612.
GCCAAAGA was tested, and the “PBM E-score” value was -0.0636.
With ACAGGCAA the “PBM E-score” value was 0.139.
CATAGGGC was tested, and the “PBM E-score” value was -0.169.
GACGGGTA was tested, and the “PBM E-score” value was -0.0938.
For CATTCAGG, the “PBM E-score” value was -0.0838.
AATGTGGA was tested, and the “PBM E-score” value was 0.0346.
In the case of GTAGACAC, the “PBM E-score” value is reported as -0.0691.
In the case of ACCGATGC, the “PBM E-score” value is reported as -0.0117.
With CAAGAGCG the “PBM E-score” value was -0.0567.
ATGACTAA was tested, and the “PBM E-score” value was 0.18.
CCTGGGGA was tested, and the “PBM E-score” value was -0.402.
CGGTGTGA was tested, and the “PBM E-score” value was -0.00213.
GAATGCGC was tested, and the “PBM E-score” value was 0.0486.
For CTCTATCC, the “PBM E-score” value was -0.173.
With CTTGCTCC the “PBM E-score” value was -0.172.
With GTCGACTA the “PBM E-score” value was 0.158.
